Measurements published in patent US8378115B2, “Monomethine dyes” (Thermo Fisher Scientific (Milwaukee) LLC, priority 2007, dated 2013).

System: 94 base pair (bp) product from the Human GAPDH gene
Assay: Real-time PCR with dye, 94 bp GAPDH product
Description: Real-time PCR was performed in 25 μL volumes on a Stratagene® MX3005p (Stratagene, La Jolla Calif.). The following PCR protocol was used to amplify a 94 base pair (bp) product from the Human GAPDH gene; 95° C.×10 min, followed by 45 cycles of 95° C.×20 sec, 60° C.×20 sec, and 72° C.×22 sec (data collected at 72° C. step). Each amplification reaction (25 μL) included 10 ng of Human Genomic DNA template (Sigma), 200 μM of each dNTP, 3 mM MgCl2, 50 mM KCL, 10 μm EDTA, 10 mM Tris, 5% DMSO, 70 nM of both forward (5′ ACAGTCAGCCGCATCTTCTT) and reverse (5′ ACGACCAAATCCGTTGACTC) primers, and 0.625 units of Taq DNA polymerase (Thermo Scientific). The dyes were included at varying concentrations. ABsolute™ QPCR SYBR® Green master mix (Thermo Scientific) was used for amplification when SYBR® Green I was required as the indicator. No template control (NTC) reactions without DNA were also included. The fluorescent signal was monitored in the following five channels (nm excitation/nm emission): 492/516, 535/555, 545/568, 585/610, and 635/665. Presence of amplicon was determined using post-amplification melt-curve analysis (95° C.×60 sec×1 cycle, 60° C.×30 sec×1 cycle followed by 95° C.×30 sec (with continuous data collection during ramping)) and agarose gel electrophoresis. […]

SMILES	inhibition of PCR with increasing amounts of dye (80, 120, 160 ng dye in 25 μL, 535/555 nm filter set)	dye amounts that inhibited PCR (25 μL reaction, 492/516 nm filter set)
CCN(CCCN(C)C)c1ccc2c(/C=C3\Sc4ccccc4N3CC)cc(C(C)(C)C)[o+]c2c1 [Dye V02-07015]	No inhibition of PCR was observed	
CCN(CC)c1ccc2c(/C=C3\Sc4ccccc4N3C)cc(N(C)CCCN(C)C)[o+]c2c1 [Dye V02-07027]		greater than 80 ng
